The source of these data is PubChem BioAssay AID488969 (Vanderbilt High Throughput Screening Facility, 2010).

Whole data set: some 110,000 compounds, median “z-score” near -0.1, cut for the highest 2% near 2. The list shows a part of the results.

The assay deals with Metabotropic glutamate receptor 8 (Rattus norvegicus) (UniProt P70579). Nature of the assay: rat mGluR8 modulators via GIRK flux, primary screen, cell-based, thallium flux, HTS (AID 488969). The settings on record: HEK293 rat mGluR8, GIRK (G protein-gated inwardly rectifying potassium channel) thallium flux, FluoZin2; at 10 µM; stronger effect = higher value; submaximal glutamate (EC20) added with thallium.
UniProt P70579, sequence (P70579 whole entry, looked up): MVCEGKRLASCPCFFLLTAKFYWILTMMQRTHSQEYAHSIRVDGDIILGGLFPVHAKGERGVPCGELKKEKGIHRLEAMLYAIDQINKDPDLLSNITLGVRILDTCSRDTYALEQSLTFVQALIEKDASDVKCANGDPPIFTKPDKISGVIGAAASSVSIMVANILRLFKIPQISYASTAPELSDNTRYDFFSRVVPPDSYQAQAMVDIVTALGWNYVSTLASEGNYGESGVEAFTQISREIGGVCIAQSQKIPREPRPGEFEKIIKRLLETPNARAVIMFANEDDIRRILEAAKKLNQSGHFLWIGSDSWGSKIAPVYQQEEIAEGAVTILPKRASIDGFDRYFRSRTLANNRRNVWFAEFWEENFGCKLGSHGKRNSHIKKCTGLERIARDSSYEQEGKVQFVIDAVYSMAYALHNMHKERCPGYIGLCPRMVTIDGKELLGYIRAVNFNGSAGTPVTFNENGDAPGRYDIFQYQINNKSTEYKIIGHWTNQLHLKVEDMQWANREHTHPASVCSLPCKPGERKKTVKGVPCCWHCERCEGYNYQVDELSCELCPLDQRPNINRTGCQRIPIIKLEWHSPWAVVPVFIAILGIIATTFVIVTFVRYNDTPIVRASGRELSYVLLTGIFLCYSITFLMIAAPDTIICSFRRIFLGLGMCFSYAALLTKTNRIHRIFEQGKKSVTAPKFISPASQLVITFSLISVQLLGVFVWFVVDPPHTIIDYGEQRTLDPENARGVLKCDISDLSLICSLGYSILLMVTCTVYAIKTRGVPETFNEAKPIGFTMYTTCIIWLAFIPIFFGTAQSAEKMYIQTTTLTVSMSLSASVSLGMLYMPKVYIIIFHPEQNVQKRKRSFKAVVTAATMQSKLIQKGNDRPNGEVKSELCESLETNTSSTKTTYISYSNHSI
For `O=C(NC1c2ccccc2-c2ccccc21)c1ccco1`, the z-score was -0.228.
Take `CC(C)C(=O)N1CCN(C2=NS(=O)(=O)c3ccccc32)CC1`: the z-score is -0.466.
As to `O=C(Nc1nc2ccccc2s1)c1ccc(Cl)s1`, the z-score was found to be 1.22.
Then `Nc1c(S(=O)(=O)c2cc(Cl)ccc2Cl)c2nc3ccccc3nc2n1CCN1CCOCC1`, with 0.528.
Regarding `CN(C)CCCNC(=O)c1ccccn1`, the z-score is -0.565.
The value for `CCOC(=O)C(=O)Nc1nnc(SCc2ccc(F)cc2)s1` was -0.179.
Take `N#Cc1c(NC(=O)CSc2nc3c(c(C(F)(F)F)n2)CCc2ccccc2-3)sc2c1CCCC2`: the z-score was -0.12.
The value for `COc1ccc2nc(NC(=O)C3COc4ccccc4O3)sc2c1` (configuration not stated) was -0.23; that for `Cc1ccc(S(=O)(=O)N/N=C\c2ccc(Cl)c([N+](=O)[O-])c2)cc1` was -0.0249; that for `CCC(Oc1ccccc1)C(=O)Nc1ccc(S(=O)(=O)N2CCOCC2)cc1` (configuration not stated) was -0.348.
`Cc1nnc(NC(=O)C(C)Oc2ccc3c(C)cc(=O)oc3c2)s1` (configuration not stated) returned a z-score of 0.0718.
The value for `CCN(CC)S(=O)(=O)c1ccc(Oc2cccc(C(C)=O)c2)nc1` was -0.503.
Then `COc1ccc(-n2c(=O)[nH]cc(C(=O)N3CCCc4ccccc43)c2=O)cc1`, with 0.0339; and `Cc1ccc(S(=O)(=O)NNC(=O)Nc2cccc3ccccc23)cc1`, with -0.107.
On to `c1ccc(CN2CCC3(CC2)Nc2ccccc2CO3)cc1`, for which the z-score was found to be 0.141.
The molecule `C=CCNc1nc2c(c(=O)n(C)c(=O)n2C)n1CCCCCC` had a z-score of -1.2.
The value for `Nc1nnc(SCCOc2ccccc2)s1` was 0.125.
Take `CCOc1ccc2nc(NC(=O)C3CCN(S(=O)(=O)c4cnc[nH]4)CC3)sc2c1`: the z-score is -0.034.
Regarding `COc1ccc(C2Nc3ccccc3C(=O)N2Cc2ccco2)cc1COc1ccc([N+](=O)[O-])cc1` (configuration not stated), the z-score came out at 0.105.
Regarding `Cc1nn(CC(O)Cn2cnc3c2c(=O)n(C)c(=O)n3C)c(C)c1Br` (configuration not stated), the z-score is 0.865.
Take `CCCC(=O)NNC(=O)c1ccoc1C`: the z-score was 0.0372.
As for `Cc1nn(Cc2ccccc2)c(Cl)c1C(=O)NCCc1ccc(Cl)cc1`, the z-score is -0.257.
Then `CCC(C)(C)NC(=O)C(c1ccc(C)o1)N(Cc1cccs1)C(=O)Cn1nnc2ccccc21` (configuration not stated), with -0.144.
Then `O=C(/C=C\Nc1ccc(Br)cc1)c1cccnc1`, with -0.276; and `O=C(Cn1nc(Cc2cccnc2)c2ccccc2c1=O)NCC1COc2ccccc2O1` (configuration not stated), with 0.122; and `Cc1c(C(=O)N2CCCCC2)sc(NC(=O)c2ccco2)c1C#N`, with 0.582.
`NC(=O)CCC(NS(=O)(=O)c1ccc(Cl)cc1)C(=O)NCc1ccccc1Cl` (configuration not stated): the z-score was -0.219.
`Clc1ccsc1-c1ccc2ccccc2n1` gave a z-score of -0.26.
The value for `O=C(CSc1nc2c(c(=O)n1-c1ccc(F)cc1)SCC2)N1CCCC1` was -1.82; that for `c1ccc(CN2CCN(c3ncccn3)CC2)nc1` was 1.19.
The value for `Cc1[nH]c2ccccc2c1C(c1ccncc1)N1CCN(c2ccccc2F)CC1` (configuration not stated) was 0.236; that for `O=C(N/N=C/c1cccnc1)c1ccc([N+](=O)[O-])cc1` was -0.176; that for `COc1ccc(CCNc2ccncn2)cc1OC` was 0.0263.
Then `COc1ccc(NC(=O)CCCn2c(=O)c3sccc3n(Cc3ccccc3C)c2=O)cc1`, with -0.618; and `CN1CCN(S(=O)(=O)c2cccc(S(=O)(=O)c3ccc(Cl)c(Cl)c3)c2)CC1`, with 1.26; and `NC(=O)c1ncc(C(F)(F)F)cc1Oc1cccc(C(F)(F)F)c1`, with -0.0312.
`O=C(N/N=C/c1ccco1)c1cc(-c2ccc3ccccc3c2)n[nH]1` yielded a z-score of 0.126.
Then `CCOC(=O)c1ccc(-c2ccc(/C=C(\C#N)C(=O)NCc3cccs3)o2)cc1`, with -0.225; and `CCCC(=O)Nc1nc2ccc3nc(C)sc3c2s1`, with -0.507; and `Cc1cc(N2C(=O)CCC2=O)ccc1NC(=O)c1cccs1`, with 0.251.
The value for `Cc1ccc(S(=O)(=O)c2nc(C)c3c(n2)CCC3)cc1` was -0.0512; that for `CCCCn1nc2cc(C(=O)NCc3ccc(OC)cc3)ccc2c1OCC` was -0.348.
Then `Cc1nc(NC(C)C)c2oc3ccccc3c2n1`, with -1.54; and `O=C(Nc1ccc(N2CCOCC2)cc1)C1CCCN(S(=O)(=O)c2ccccc2)C1` (configuration not stated), with 0.446; and `O=c1n(-c2ccccc2)c(=O)n2n1CCCC2`, with -0.0721.
Consider `COc1cccc(NC(=O)N(CCCN2CCOCC2)C(C)c2cc3cccc(OC)c3o2)c1` (configuration not stated), for which the z-score is -1.33.
In the case of `CCCCC(=O)Oc1ccccc1C1SCc2cc(C)c(C)cc2CS1`, the z-score was -0.268.
Turning to `Cc1cc(C(F)(F)F)n2nc(-c3cnn(C)c3C(F)(F)F)c(Cl)c2n1`, the z-score is -0.158.
`O=C(Nc1ccc2c(c1)OCCO2)c1cc2sccc2n1Cc1ccc(F)cc1`: the z-score is -0.281.
For `CC(C)Nc1nc(SCC(N)=O)nc(N2CCOCC2)n1`, the z-score was 0.411.
As to `CC(=O)Nc1ccc(C(=O)OC2CCCCC2=O)cc1` (configuration not stated), the z-score was 0.0145.
The value for `Nc1nc2ccccc2n1/N=C/c1cccnc1` was -0.129; that for `O=C(CSc1nc2ccccc2c(=O)n1CCCO)N1CCc2ccccc21` was -0.17; that for `CCN(CC)S(=O)(=O)c1ccc(NC(=O)C(C)N(c2ccccc2)S(C)(=O)=O)cc1` (configuration not stated) was -0.142.
For `CCCNC(=O)COC(=O)c1[nH]c(C)c(C(=O)OCC)c1C`, the z-score is -0.279.
The value for `O=C(NC(Cc1ccccc1)C(=O)O)/C(=C/c1ccccc1)NC(=O)c1ccccc1` (configuration not stated) was -0.249; that for `CC1(C)Nc2ccccc2N(CC(=O)N2CCCCC2)C1=O` was 0.972; that for `Cc1cc(-c2ccco2)n(CC(=O)NCc2ccccc2)n1` was 0.232.
`Cc1cc(C)c(C)c(S(=O)(=O)N2CCN(C(=O)c3cc(=O)[nH]c4ccccc34)CC2)c1C`: the z-score was -0.942.
The value for `Cc1c(NC(=O)C(Sc2ccccc2)c2ccccc2)cccc1[N+](=O)[O-]` (configuration not stated) was 0.0967.
Molecule `CC(=O)c1c[nH]c2ccc(C)cc2c1=O` gave a z-score of -0.303.
Then `COc1ccccc1NC(=O)CSc1nnc(CNC(=O)c2ccco2)o1`, with 1.4; and `Cc1nnc(SCC(=O)Nc2sc3c(c2C(=O)c2ccccc2)CCCC3)s1`, with -0.931; and `COc1cccc2c1OC1(C)CC2NC(=O)N1Cc1ccccc1` (configuration not stated), with -0.315.
The value for `CCOC(=O)c1cc2nc(-c3ccco3)cc(C(F)(F)F)n2n1` was -1.72.
The value for `Cc1c(Cl)c([N+](=O)[O-])nn1Cc1ccc(C(=O)Nc2ccc(Cl)cn2)o1` was -0.27; that for `Cc1[nH]nc2c1C1(CCOCC1)C(C#N)=C(N)O2` was -0.0698; that for `S=C(Nc1cccc(Cl)c1)NC1CC2CCCC(C1)N2C1CCCC1` (configuration not stated) was 0.659.
In turn, `CN(c1cccc(NC(=O)CCSc2ccccc2)c1)S(C)(=O)=O` returned a z-score of -0.245.
Then `COc1ccc(C(c2sc3ncnn3c2O)N2CC(C)OC(C)C2)cc1OC` (configuration not stated), with -0.138; and `CCCNC(=O)CN(c1ccc(F)c(Cl)c1)S(C)(=O)=O`, with -0.357; and `Cn1cnnc1SCc1cccc(Br)c1`, with 0.349.
Then `CC(/C=C1\SC(=S)N(NC(=O)c2ccc(C)cc2)C1=O)=C\c1ccccc1`, with -0.0875; and `Cc1onc(-c2ccccc2Cl)c1C(=O)Oc1cc(N)n(S(=O)(=O)c2ccc(F)cc2)n1`, with -1.95.
Then `CCOC(=O)C1CCN(C(=O)c2sc3nc(C)nc(N4CCC(C)CC4)c3c2C)CC1`, with -0.881.
The molecule `COc1cc(C(=O)OCC(=O)Nc2cc(C)on2)cc(OC)c1OC` yielded a z-score of -0.0426.
In turn, `COc1ccc2nc(CC(C)(C)CC(=O)O)c[n+]([O-])c2c1` had a z-score of -0.136.
The value for `Cc1ccc(NCC(=O)N/N=C\C(Br)=C\c2ccccc2)cc1` was -0.852; that for `Cc1ccsc1C1NC(=O)c2c(sc3c2CCN(C)C3)N1` (configuration not stated) was -0.443.
The value for `C/C(=N\NC(=O)Cc1ccccc1)c1cccs1` was -0.219; that for `CC(C)(C)c1cc(Cc2ccccc2)[nH]n1` was -0.13; that for `Cn1c(C(=O)OC(C(=O)NC2CCCCC2)c2cccnc2)cc2sccc21` (configuration not stated) was -0.109.
Then `COc1ccc(/C=C2\N=C(SC)SC2=O)cc1OC`, with -0.325; and `Cc1c(C#N)c2ncn(Cc3ccccn3)c(=O)c2n1-c1ccccc1`, with -0.89.
Molecule `Cn1c(=S)[nH]c2ccccc21` returned a z-score of 0.0514.
Take `O=C1CCN(N=Nc2cccc(Cl)c2)N1`: the z-score turned out to be 0.605.
`COc1ccc(-c2csc(/C(C#N)=C/Nc3ccc4c(c3)OCCO4)n2)cc1` yielded a z-score of -0.607.
The value for `C=CCNC(=O)c1ccccc1Cl` was -0.0738; that for `CCCOc1ccc(-c2nc(C#N)c(NCCCn3ccnc3)o2)cc1` was 0.0152; that for `COc1ccc(NC(C)=O)cc1NC(C)C(=O)Nc1cccc2ccccc12` (configuration not stated) was 0.181.
The value for `CCn1c2ccccc2c2nnc(SCC(=O)c3ccccc3)nc21` was -0.432; that for `CC(=O)Nc1cccc(C(=O)/C=C/c2cccs2)c1` was 0.574.
Then `CC(C)c1nc(SCC(=O)N2CCCc3ccccc32)c2c(=O)n(C)c(=O)n(C)c2n1`, with 0.961; and `O=C(Cc1ccccc1Cl)Nc1cccc(S(=O)(=O)N2CCOCC2)c1`, with -0.174.
As for `CC(=O)c1ccc(N2CCN(C(=S)Nc3cccc(Cl)c3)CC2)cc1`, the z-score was -0.152.
In turn, `CC(=O)c1ccc(NS(=O)(=O)c2ccc(CC(C)C)cc2)cc1` came in with a z-score of -0.316.
Then `Cc1nnc(SCC(=O)Nc2sccc2C(N)=O)n1Cc1ccccc1`, with -0.51.
`O=C(O)C1CCCCC1C(=O)NCCCN1CCOCC1` (configuration not stated) had a z-score of 0.0352.
`COc1cccc(Nc2ccc(C(=O)O)cc2[N+](=O)[O-])c1` showed a z-score of 0.594.
`Cc1ccccc1Oc1cccc(C(=O)/C(C#N)=C/N(C)C)c1` yielded a z-score of 0.0388.
The value for `N#CCSCC(=O)Nc1ccc(Br)cc1` was -0.0912; that for `COc1ccc(N(CC(=O)NCCSC(C)(C)C)S(C)(=O)=O)c(OC)c1` was 0.534; that for `O=C1/C(=C\c2cccs2)N=C(c2cccs2)N1Nc1ccccc1` was 0.00186.
Then `Oc1ccccc1-c1nnc(COc2ccccc2)o1`, with -0.0157; and `CC(=O)c1cccc(NC(=O)COc2nsnc2N2CCOCC2)c1`, with -0.119; and `Cc1cccc(C(=O)Oc2ccccc2-c2nnco2)c1`, with -0.546.
The value for `CC(=O)N1CCc2cc(S(=O)(=O)NC(C(=O)NCc3ccccc3)C(C)C)ccc21` (configuration not stated) was 1.38; that for `CN1/C(=C\C(=O)CN2C(=O)NC3(CCCCCC3)C2=O)C(C)(C)c2ccccc21` was 0.196.
Take `O=C(Cc1ccccc1)N1CCCC(c2nc(-c3cccs3)no2)C1` (configuration not stated): the z-score was -0.856.
Then `O=C1CC(c2ccc(Cl)cc2)n2nc(NS(=O)(=O)c3ccc(F)cc3)nc2N1` (configuration not stated), with 0.11; and `COC(=O)CNC(=O)CN1C(=O)N(c2ccc(Cl)cc2)C(N(O)C(=O)Nc2ccc(Cl)cc2)C1(C)C` (configuration not stated), with 0.0314.
The value for `CON/C=C(\C=Nc1ccc(Cl)cc1Cl)c1ncc(C(F)(F)F)cc1Cl` was -0.248.
